Each structure is given as a SMILES string. For some of these results: Shown are results outside the selection of strong results, which stands elsewhere. The entries are a selection whose mix differs from that of the whole data set.

Holding throughout (conditions): concentration: 1 μM,replicates: in singlicate; n = 1
Test [1] concerns T1, MST3.
T1 construct: gene STK24

Test [2] concerns MST4.
In test [3] the test system is MTOR.
For test [4], the system named is MUSK.
The subject of test [5] is MYLK2.
The subject of test [6] is MYLK4.
The test system of test [7] is MYLK.
Test [8] has as its system MYO3A.
Test [9] has as its system MYO3B.
Test [10] concerns T2, NDR1.
T2 construct: gene STK38
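Also: KINOMEscan kinase panel screen.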

On to `O=C1NC(=O)C(c2ccccc2Cl)=C1Nc1ccccc1` [SB-376715], for which the “%Inh” value in [1] is listed as 0%; in [2], 1%; in test [3], 5%; in test [4] it was 0%; in [5] it was 10%; in test [6], 8%. For the same compound, the “%Inh” value is on record as 12% in test [7], 4% in test [8], 0% in [9] and 2% in test [10].
As to `COc1ccc(C2=C(Nc3cccc(Cl)c3)C(=O)NC2=O)cc1` [SB-326892], the “%Inh” value in [1] is recorded as 0%; in test [2] it was 0%; in test [3] it was 14%; in [4], 0%; in test [5], 0%; in test [6] it was 22%. For the same compound, the “%Inh” value in test [7] came out at 0%; in test [8], 0%; in test [9] it was 15%; in test [10], 0%.
As to `O=C(O)c1ccc(-c2nc(-c3ccc(F)cc3)c(-c3ccncc3)[nH]2)cc1` [SB-202620], the “%Inh” value stood at 10% in [1]; 4% in test [2]; 0% in test [3]; 0% in test [4]; 3% in test [5]; 15% in test [6]. Besides, the “%Inh” value was found to be 0% in test [7], 0% in test [8], 26% in test [9] and 34% in test [10].
On to `O=C1NC(=O)C(c2ccccc2Cl)=C1Nc1cccc(C(=O)O)c1` [SB-390526], for which the “%Inh” value in [1] was determined as 0%; in [2], 0%; in test [3], 13%; in test [4] it was 5%; in test [5], 0%; in test [6] it was 6%. Also, the “%Inh” value in test [7] worked out at 2%; in [8], 23%; in [9], 0%; in [10], 18%.
Regarding `Cc1cc(C)cc(Oc2nccc(-c3c(-c4ccc(F)cc4)ncn3C3CCNCC3)n2)c1.O=C(O)C(F)(F)F.O=C(O)C(F)(F)F.O=C(O)C(F)(F)F` [SB-284851], the “%Inh” value is 0% in test [1]; 0% in test [2]; 7% in test [3]; 0% in test [4]; 0% in test [5]; 0% in test [6]. In addition, the “%Inh” value was 8% in test [7], 15% in test [8], 13% in [9] and 0% in test [10].
For the compound `O=C1NC(=O)C(c2ccc(Cl)cc2)=C1Nc1ccccc1` [SB-317661], the “%Inh” value was determined as 0% in test [1]; 0% in [2]; 33% in [3]; 0% in test [4]; 0% in test [5]; 6% in [6]. For the same compound, the “%Inh” value in [7] is reported as 0%; in test [8] it was 0%; in test [9], 0%; in [10], 50%.
On to `O=C1NC(=O)C(c2ccc(Cl)cc2)=C1Nc1ccc(O)c(Cl)c1` [SB-405367], for which the “%Inh” value in [1] was found to be 0%; in test [2], 0%; in test [3], 0%; in [4] it was 0%; in [5] it was 0%; in test [6], 10%. Further, the “%Inh” value in [7] is recorded as 0%; in [8], 13%; in test [9], 0%; in [10] it was 18%.
For `CSc1ccc(NC2=C(c3cccc(Cl)c3)C(=O)NC2=O)cc1` [SB-341528], the “%Inh” value turned out to be 4% in [1]; 0% in test [2]; 0% in test [3]; 0% in [4]; 0% in test [5]; 6% in test [6]. In addition, the “%Inh” value in test [7] turned out to be 0%; in [8] it was 0%; in test [9] it was 0%; in [10], 13%.
In the case of `COc1cccc(C2=C(Nc3ccc(SC)cc3)C(=O)NC2=O)c1` [SB-331032], the “%Inh” value in [1] turned out to be 3%; in test [2] it was 0%; in test [3] it was 25%; in [4], 0%; in test [5], 16%; in test [6], 16%. Moreover, the “%Inh” value was found to be 0% in test [7], 13% in test [8], 0% in test [9] and 13% in test [10].
In the case of `O=C1NC(=O)C(c2ccccc2)=C1Nc1cc(Cl)c(O)c(Cl)c1` [SB-390530], the “%Inh” value was determined as 0% in [1]; 0% in test [2]; 57% in test [3]; 34% in test [4]; 7% in test [5]; 11% in [6]. For the same compound, the “%Inh” value is 19% in [7], 10% in test [8], 37% in test [9] and 12% in test [10].
For `O=C1NC(=O)C(c2ccccc2)=C1Nc1ccc(Cl)c(C(=O)O)c1` [SB-390532], the “%Inh” value is on record as 0% in test [1]; 0% in test [2]; 12% in test [3]; 0% in [4]; 0% in [5]; 4% in test [6]. The “%Inh” value worked out at 17% in [7], 26% in test [8], 7% in test [9] and 6% in test [10].
As to `CS(=O)(=O)c1ccccc1-c1nc(-c2ccc(F)cc2)c(-c2ccncc2)[nH]1` [SB-213663], the “%Inh” value in test [1], in test [2], in [3], in test [4], in test [5] and in test [6] was 0% in each case. The “%Inh” value is reported as 100% in test [7], 19% in [8], 0% in test [9] and 0% in test [10].
As to `O=C1NC(=O)C(c2ccc(Cl)cc2)=C1Nc1cccc(O)c1` [SB-333613], the “%Inh” value in test [1] was found to be 21%; in test [2], 32%; in test [3] it was 42%; in [4], 10%; in [5], 8%; in test [6], 0%. Besides, the “%Inh” value in test [7] stood at 43%; in [8], 0%; in test [9] it was 0%; in [10] it was 28%.
Turning to `O=C1NC(=O)C(c2ccc(Cl)cc2)=C1Nc1cccc(C(=O)O)c1` [SB-360737], the “%Inh” value in test [1] is 0%; in [2], 0%; in [3], 9%; in test [4], 6%; in [5], 18%; in test [6], 0%. Further, the “%Inh” value is reported as 12% in test [7], 0% in test [8], 0% in [9] and 7% in test [10].
For the compound `O=C1NC(=O)c2c1c(-c1ccccc1)cc1[nH]c3ccc(O)cc3c21`, the “%Inh” value in test [1] was determined as 25%; in test [3], 9%; in test [4], 8%; in test [5] it was 97%; in test [6] it was 99.8%; in test [7], 89%. Further, the “%Inh” value in test [8] was 6%; in test [9], 0%; in test [10], 17%.
`Cc1ccc(C)c(Oc2nccc(-c3c(-c4ccc(F)cc4)ncn3C3CCNCC3)n2)c1.O=C(O)C(F)(F)F.O=C(O)C(F)(F)F.O=C(O)C(F)(F)F` [SB-284852]: the “%Inh” value in [1] is reported as 16%; in test [2], 0%; in test [4] it was 0%; in test [5] it was 0%; in test [6], 0%; in test [7], 17%. Moreover, the results for the “%Inh” value in test [9] and in test [10] were 15% and 51%, respectively.

The values are drawn from PMC5540273 (PLoS ONE, 2017).
